Among all 360,000 compounds or so, about 16,000 (4.4%) were called active. This list was built around the results that the source calls inconclusive (neither active nor inactive); the mix of calls is not that of the screen. Calls come from the whole dose curve; as a rule, active = well fitted inhibition curve with a large enough effect; inconclusive = small, poorly fitted or top-dose-only effect; inactive = no such curve, though single readings can be large or run the other way. Potencies beside an inconclusive call are fits to weak or partial responses and may not hold up.
Each compound was assayed against Bromodomain adjacent to zinc finger domain protein 2B (Homo sapiens) (UniProt Q9UIF8) (assay: qHTS Assay for Inhibitors of BAZ2B). Conditions: AlphaScreen BAZ2B-H3K14Ac peptide displacement; activity change, negative = inhibition: at 114 µM (top of the series) unless noted.
Sequence of UniProt Q9UIF8 (Q9UIF8 whole entry, looked up, the tested form may be a part): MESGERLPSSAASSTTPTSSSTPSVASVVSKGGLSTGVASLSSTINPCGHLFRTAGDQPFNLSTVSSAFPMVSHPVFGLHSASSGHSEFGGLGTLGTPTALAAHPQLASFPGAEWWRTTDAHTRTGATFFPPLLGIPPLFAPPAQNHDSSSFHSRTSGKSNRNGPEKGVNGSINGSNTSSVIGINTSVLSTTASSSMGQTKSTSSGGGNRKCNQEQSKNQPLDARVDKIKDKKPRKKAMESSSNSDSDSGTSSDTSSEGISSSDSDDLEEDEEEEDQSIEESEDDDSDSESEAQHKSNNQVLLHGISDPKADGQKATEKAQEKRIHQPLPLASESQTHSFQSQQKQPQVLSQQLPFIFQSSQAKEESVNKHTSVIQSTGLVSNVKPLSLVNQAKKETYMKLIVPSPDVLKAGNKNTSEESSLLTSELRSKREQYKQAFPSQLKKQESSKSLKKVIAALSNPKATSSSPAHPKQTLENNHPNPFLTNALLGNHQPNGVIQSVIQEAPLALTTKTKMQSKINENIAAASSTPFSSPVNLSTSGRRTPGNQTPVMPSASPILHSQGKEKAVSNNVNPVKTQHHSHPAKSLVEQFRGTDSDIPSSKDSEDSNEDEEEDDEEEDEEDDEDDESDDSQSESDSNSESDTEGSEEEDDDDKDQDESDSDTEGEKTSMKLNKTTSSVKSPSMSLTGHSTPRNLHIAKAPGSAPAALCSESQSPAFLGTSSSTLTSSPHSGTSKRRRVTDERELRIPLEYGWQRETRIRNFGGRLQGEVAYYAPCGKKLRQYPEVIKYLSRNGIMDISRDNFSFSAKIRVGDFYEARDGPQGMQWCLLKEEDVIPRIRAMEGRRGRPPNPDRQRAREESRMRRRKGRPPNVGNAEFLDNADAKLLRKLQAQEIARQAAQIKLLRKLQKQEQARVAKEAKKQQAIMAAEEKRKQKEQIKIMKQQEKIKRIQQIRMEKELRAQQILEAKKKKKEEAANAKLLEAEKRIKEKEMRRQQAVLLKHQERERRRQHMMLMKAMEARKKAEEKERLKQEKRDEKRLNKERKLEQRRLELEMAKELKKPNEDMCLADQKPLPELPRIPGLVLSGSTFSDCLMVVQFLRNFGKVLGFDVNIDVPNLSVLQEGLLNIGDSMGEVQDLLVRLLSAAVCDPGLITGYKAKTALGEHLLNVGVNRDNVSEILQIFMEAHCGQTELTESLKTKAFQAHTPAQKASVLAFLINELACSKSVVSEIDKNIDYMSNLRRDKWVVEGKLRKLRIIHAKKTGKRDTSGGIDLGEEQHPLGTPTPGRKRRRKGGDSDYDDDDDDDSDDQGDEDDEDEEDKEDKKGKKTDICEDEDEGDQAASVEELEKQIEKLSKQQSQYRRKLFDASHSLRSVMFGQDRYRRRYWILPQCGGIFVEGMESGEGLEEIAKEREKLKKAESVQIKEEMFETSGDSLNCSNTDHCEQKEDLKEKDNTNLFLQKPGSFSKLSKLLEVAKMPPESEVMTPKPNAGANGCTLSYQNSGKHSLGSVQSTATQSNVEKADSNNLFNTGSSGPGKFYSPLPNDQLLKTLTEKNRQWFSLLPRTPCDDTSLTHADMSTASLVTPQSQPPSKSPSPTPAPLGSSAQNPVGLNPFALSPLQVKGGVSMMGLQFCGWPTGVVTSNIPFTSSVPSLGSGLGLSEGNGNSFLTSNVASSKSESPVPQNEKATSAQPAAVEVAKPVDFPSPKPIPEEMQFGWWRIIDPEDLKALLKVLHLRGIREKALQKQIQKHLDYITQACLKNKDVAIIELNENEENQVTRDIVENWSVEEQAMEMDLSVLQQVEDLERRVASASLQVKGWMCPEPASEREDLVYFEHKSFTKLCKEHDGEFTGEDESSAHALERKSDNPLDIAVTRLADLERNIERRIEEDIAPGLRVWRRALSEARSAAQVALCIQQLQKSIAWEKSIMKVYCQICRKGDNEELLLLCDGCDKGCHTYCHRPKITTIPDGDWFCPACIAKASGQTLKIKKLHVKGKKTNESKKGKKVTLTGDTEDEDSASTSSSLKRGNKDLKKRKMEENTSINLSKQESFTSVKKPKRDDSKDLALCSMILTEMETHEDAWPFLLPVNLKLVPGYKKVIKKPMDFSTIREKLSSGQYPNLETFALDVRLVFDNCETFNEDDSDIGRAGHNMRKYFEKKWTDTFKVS
How it was run: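 AlphaScreen displacement: compounds (up to 110uM) incubated 30 min at room temperature with a preformed 50 nM BAZ2B/50 nM biotinylated H3K14Ac peptide complex in PBS pH 7.4 with Tween-20. Donor and acceptor beads at 10 ug/mL final added, 20 min light-protected before reading.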
% is set by controls: 0 for no effect and ±100 for the full control effect; potency is the fitted concentration of half-maximal effect; tags give direction and shape of the fitted curve.
Note: nearly all actives have a fitted effect of over 60% in size.

Row | SMILES | Potency | activity change, negative = inhibition
1 | COc1cccc(C2c3[nH]c4ccccc4c3CCN2Cc2cccn2-c2ncccn2)c1 (stereo not drawn) | inconclusive: 39.8 µM [inhibitor, partial curve] | –
2 | O=C1CCN(CCc2ccccc2)CCN1[C@H](COc1ccccc1)Cc1ccccc1 | inconclusive: 50.1 µM [inhibitor, partial curve] | –
3 | CCOc1cc(/C=C2/SC(=S)N(C)C2=O)ccc1Oc1ccc([N+](=O)[O-])cc1[N+](=O)[O-] | inconclusive: 0.891 µM [inhibitor, full curve, poor fit] | –
4 | CCOC(=O)Cn1cc(/C=C/[N+](=O)[O-])c2ccccc21 | inconclusive: 44.7 µM [inhibitor, partial curve] | –
5 | O=C(/C=C/c1cccs1)NC(=S)NNC(=O)c1ccccc1O | inconclusive: 1.12 µM [inhibitor, full curve, poor fit] | –
6 | O=C(C1CCCN(c2nnc(-n3cccc3)s2)C1)N1CCN(c2ccccc2)CC1 (stereo not drawn) | inconclusive: 50.1 µM [inhibitor, partial curve] | –
7 | CC1CCC/C(=N/Nc2nc3ccccc3s2)C1 (stereo not drawn) | inconclusive: 44.7 µM [inhibitor, partial curve] | –
8 | Cn1c(=O)c2c(nc(NCCc3ccccc3)n2Cc2ccc(F)cc2)n(C)c1=O | inconclusive: 39.8 µM [inhibitor, partial curve] | –
9 | CCN1CCN(c2oc(COc3ccc(-c4ccccc4)cc3)nc2C#N)CC1 | active: 31.6 µM | –
10 | Cc1cc2oc(C(=O)N(Cc3ccc(N(C)C)cc3)Cc3ccco3)c(C)c2cc1Cl | active: 12.6 µM | –
11 | Cc1ccccc1Nc1nc(N)c(C(=O)c2ccccc2Cl)s1 | active: 31.6 µM | –
12 | NC(=O)c1c(NC(NC(=O)c2ccco2)(C(F)(F)F)C(F)(F)F)sc2c1CCCC2 | inconclusive: 79.4 µM [inhibitor, partial curve] | –
13 | O=C(CN1CCN(c2ccccc2)CC1)Nc1ccc2c(c1)OCCO2 | – | inactive: -18.2%
14 | CCN(CC(=O)NCc1cccs1)S(=O)(=O)c1ccc(F)c(F)c1F | – | inactive: -3.2%
15 | CC(=Nc1ccccc1C)C1=C(O)CSC1=O | – | inactive: -6.71%
16 | O=C1c2cccc3cccc(c23)C(=O)N1c1cccc(O)c1 | inconclusive: 89.1 µM [inhibitor, single point] | –
17 | COc1ccc(CNC(=O)COC(=O)/C=C/c2ccco2)cc1 | inconclusive: 89.1 µM [inhibitor, single point] | –
18 | CC1=C(c2ccc(C)c(C)c2)S(=O)(=O)N=C1N1CCC(C(=O)NCc2ccc(N(C)C)cc2)CC1 | inconclusive: 89.1 µM [inhibitor, single point] | –
19 | NC(=O)c1ccc(NCC2CCCO2)c([N+](=O)[O-])c1 (stereo not drawn) | inconclusive: 8.91 µM [inhibitor, partial curve] | –
20 | CN(C)c1ccc(P(=O)(COc2ccc([N+](=O)[O-])cc2)c2ccc(N(C)C)cc2)cc1 | active: 25.1 µM | –
21 | CCOc1ccc2c(c1)C(=O)C(=O)N2CC1COc2ccccc2O1 (stereo not drawn) | inconclusive: 20 µM [inhibitor, full curve] | –
22 | COc1ccc(CCn2c(C)c(C(C)=O)c3cc(OC(=O)c4ccco4)ccc32)cc1OC | – | inactive: -34.2%

Row | SMILES | Potency | activity change, negative = inhibition
23 | CCCC(=O)N1c2ccccc2-c2nnc(SC)nc2OC1c1sccc1C (stereo not drawn) | inconclusive: 39.8 µM [inhibitor, partial curve] | –
24 | COC(=O)CCCC1=CC2=C(c3ccccc3)C(=O)C(C)(OC(=O)C3CCCC3)C(=O)C2=CN1Cc1ccco1 (stereo not drawn) | active: 70.8 µM | –
25 | CC(C)C[C@H](NC(=O)c1cc2cc(Cl)ccc2n1C)C(=O)N1CCC[C@H]1C(=O)O | inconclusive: 79.4 µM [inhibitor, single point] | –
26 | COc1ccc(C(=O)N/N=C(\Cc2ncc[nH]2)c2ccccc2)cc1 | inconclusive: 89.1 µM [inhibitor, single point] | –
27 | O=C(C1=C(c2ccccc2)C(=O)c2ccccc2C1=O)c1ccccc1 | active: 12.6 µM | –
28 | Nc1nc(SCC(=O)N2N=C3/C(=C/c4ccco4)CCCC3C2c2ccco2)n[nH]1 (stereo not drawn) | active: 50.1 µM | –
29 | CC(=O)c1cccc(NC(=O)CCn2nc(C)c(S(=O)(=O)N3CCCCC3)c2C)c1 | inconclusive: 89.1 µM [inhibitor, single point] | –
30 | CN(C)c1ccc(/C=N/n2c(-c3cccnc3)n[nH]c2=S)cc1 | inconclusive: 79.4 µM [inhibitor, single point] | –
31 | CCOC(=O)c1ccc(-n2c(O)c(/C=N/NC(=O)C3COc4ccccc4O3)c3ccccc3c2=O)cc1 (stereo not drawn) | inconclusive: 79.4 µM [inhibitor, single point] | –
32 | CCOc1ccc(NC(=O)CN(C)CC(=O)Nc2cc(Cl)ccc2C#N)cc1OCC | – | inactive: -4.64%
33 | CCc1ccccc1NC(=O)C1CCCN(S(=O)(=O)c2ccc3[nH]c(=O)ccc3c2)C1 (stereo not drawn) | inconclusive: 79.4 µM [inhibitor, single point] | –
34 | Cc1ccc(OCC(=O)NCC(=O)OCc2cc(=O)n3nc(CC(C)C)sc3n2)cc1 | – | inactive: -2.89%
35 | O=C(c1cccs1)N1CCCc2cc(NS(=O)(=O)c3cc(F)ccc3F)ccc21 | inconclusive: 79.4 µM [inhibitor, single point] | –
36 | O=c1cc[nH]c2cc(C(F)(F)F)ccc12 | inconclusive: 89.1 µM [inhibitor, single point] | –
37 | COc1ccc(-c2nc(N)n(C(=O)c3ccccc3Cl)n2)cc1 | inconclusive: 89.1 µM [inhibitor, single point] | –
38 | Cc1cc(C(=O)NCCc2ccc(Cl)cc2)c2c(C)nn(-c3ccccc3)c2n1 | – | inactive: 0.386% [at 57.1 µM]
39 | C(=N\N1CCN(Cc2ccccc2)CC1)/c1ccccc1 | inconclusive: 56.2 µM [inhibitor, partial curve] | –
40 | COc1n[nH]c(C(=O)Nc2nc3ccccc3s2)c1[N+](=O)[O-] | active: 56.2 µM | –
41 | COc1ccc(-n2cccc2/C=C2\C(=N)N3N=C(C(C)C)SC3=NC2=O)cc1 | inconclusive: 39.8 µM [inhibitor, partial curve] | –
42 | CCOC(=O)c1cnn(-c2nc(OCC)cc(OCC)n2)c1C | – | inactive: 1%
43 | Cc1cc(CN2CCN(CCC#N)CC2)c(O)c(C2(C)CCCCC2)c1 | inconclusive: 35.5 µM [inhibitor, full curve] | –
